Here are results for 167 variants from the RNAGym collection of RNA variant scans (doi:10.7554/elife.90254).

B1: LINE1-full (parent)
chain: UACGUAGGUGGUUUUCCCCUGAUAGUGCUAAGGGGGCCUGGAAGUUUGGACUGGGCAGAGCUCAACACAGCGUGGCAAAGUGGCUGUGGCUAGACUGCCUCUCUGGAUUCCUCGUCACUCAGCAGGGCAUCUCUGAGAGAAAUGCC

Read counts are not given, so values of variants with three or more changes are uncertain.

The variants in the data set derive from B1. In words: self-cleavage, relative activity (ratio to wild type); higher = more cleavage; in vitro, sequencing; the parent is a self-cleaving ribozyme.
For G11A U14C U104G, the self-cleavage was determined as 0.65. On to G34A U47A A69G A138U, for which the self-cleavage was 0.13. With U52A U81C U143C the figure was 0.93; with A31G A42G G72U G126A, 1.02; with C16A U52A A140G U143A, 0.82. For U14A U62C U87A U115A A138G A142G, the self-cleavage was determined as 1.03. Regarding U45C U52A A92G U109A A129U, the self-cleavage worked out at 0.09. Regarding U15A A92U G144A, the self-cleavage was determined as 0.71. For the variant U52A U96C A124G, the self-cleavage amounted to 0.12. In the case of U12C A64G C123U, the self-cleavage came out at 0.32. Regarding U15C U81A A94G U109C U132C, the self-cleavage was found to be 0. Consider A2G C3U G41U U46C U47C A124G, for which the self-cleavage amounted to 0.67.

Regarding C17U U112C A140G, the self-cleavage is 0.88. With G58U U85A U119C A141G, the self-cleavage is 0.04.

Turning to U15C C63U U132C, the self-cleavage is 0.4. On to A107G C131U A138G, for which the self-cleavage came out at 1.84. In the case of C3U G11A U23C U130C, the self-cleavage was 0.

For U12C A64G U85A, the self-cleavage was determined as 0.27. For A69G A78U U130A, the self-cleavage was 1.02.

Turning to U5C U9C U81A, the self-cleavage came out at 1.55. With G35A U62C U104C the figure was 0.04; with U20C A50G A77U A121G A140G, 0; with A69G U96C U100A U112C U143A, 0. For C3A U29C G74A U96C, the self-cleavage came out at 0.

In the case of U9A A57G U81C, the self-cleavage stood at 1.15. Regarding A43G U47C U81A U85C A136G, the self-cleavage is 0.41. On to C17U C84U C133A, for which the self-cleavage turned out to be 0.1. As to U45C U73C A79G, the self-cleavage was determined as 1.31. On to U13C U14C A107G U108C, for which the self-cleavage worked out at 1.84.

As for G11A A92U U96C A107U U112C C120U, the self-cleavage was 0.11. For the variant U62A U100C U109G U134C A142G, the self-cleavage stood at 0. With A79C A94U U112C the figure was 0.34. On to G7A U130C U132C, for which the self-cleavage came to 1.29. As to U12C G34U U104C U134A U143C, the self-cleavage amounted to 1.91. For U20C U96C U119C the value was 0.63. With U9C U52G G72A A107G U115C C118A U132A U143A the figure was 2.46; with U100C G122A U130C, 2.14. As to U9C U13C U73C A121G, the self-cleavage stood at 1.97. A77U A78G U81A G114A U132C: the self-cleavage turned out to be 2.24. Consider U85C G105U U119C, for which the self-cleavage came to 0.24. As to G34C A50U C120U, the self-cleavage came to 1.65. With A6G C56U A117G U130C, the self-cleavage was 0.62.

Consider G11A U12G G32A A59G, for which the self-cleavage was 0.31.

For U23C U112C G114A, the self-cleavage was determined as 2.41.

On to A30G A64U A94G, for which the self-cleavage stood at 0.25. Consider U23C U46A A136U, for which the self-cleavage was found to be 1.66. On to U39C A69U U87A C95U A124G, for which the self-cleavage was found to be 0.04.

G33U U46C U143A: the self-cleavage was determined as 1.4. Consider U9A A42G A124U A142G, for which the self-cleavage is 0.75.

For U12A A57G U143C, the self-cleavage came out at 1.01. Regarding U20C A78G A141G, the self-cleavage was 2.09. With U73C U134A A142G, the self-cleavage was 1.38. Consider U5A G60A A124G U143C, for which the self-cleavage was 0.12.

For U9C U115C U143C, the self-cleavage is 1.58. Consider U26C G70A U143A, for which the self-cleavage amounted to 0.12.

On to U29A A57U A69G A107G, for which the self-cleavage was found to be 0.13. As to G4A U14C U96C, the self-cleavage came to 0.26. Turning to U20A A77U U115A, the self-cleavage came to 1.24. As to U14C A50G U52A U87A, the self-cleavage was 0.28. With G35A A42G A50U U62A the figure was 0.09; with U13C U14C G106A, 1.58; with U15C C71G U96C, 0.

As to U39C A43G U73A U102A U112C, the self-cleavage stood at 0.99. As for A69U U91A A142G C146A, the self-cleavage was determined as 0.01. For U13C U46C G54A U91C C98U U143C the value was 0.14. Consider U91C C116A C145A, for which the self-cleavage stood at 0.32. In the case of A43G G127A A140G, the self-cleavage was determined as 1. With U47A U52A U73G, the self-cleavage stood at 1.52. With A22G A78U A124G the figure was 2; with U13C A42U C71G A79G, 0.07; with G74A U134A A140G, 0.39. U23G U45C A136G: the self-cleavage came out at 1.82. Take U73C U119C U130C: the self-cleavage is 0.97. Consider A31G C56G G74A U115C A129U, for which the self-cleavage is 0.04.

In the case of U15A A43G A64U A141G, the self-cleavage is 0.41. As for U29C A65G A136G, the self-cleavage is 0.15. Take U20A A94G G114A G122U: the self-cleavage worked out at 0.2. With U1A C3U C19U A77G A140G the figure was 2.09; with A22G U46A C145U C146A, 1.28.

Regarding A67G U87A A142G, the self-cleavage turned out to be 0.28. Turning to U46C U112A U130A, the self-cleavage is 2.68.

Turning to U5A A65G U134A, the self-cleavage is 0.24. With U62C U102C U143C, the self-cleavage is 0. For U29A A94U U115C A117U A124U, the self-cleavage came to 0.48. U15A U29G U47C U52A C113U: the self-cleavage was 0.88. For U15C U81C U115A the value was 1.55; for U14C A43C G70A, 0.18. On to C3U U62C A117U A138G, for which the self-cleavage amounted to 0.13. As for G33A A57G G93U A124U, the self-cleavage amounted to 0.06.

For G10A G33U U47C A79G, the self-cleavage was determined as 2.3. With A79G U85C U102C, the self-cleavage amounted to 0.32. As to U100C U134C A140G, the self-cleavage was 1.2. For U26A C90U A94G U96A C113U U132C the value was 0.04; for A30G U81C G144A, 0.51. For A6G U47G U87C the value was 0.42. For the variant U29A U46A G144A, the self-cleavage amounted to 1.3. Regarding U13A U23C C28U A140G, the self-cleavage came out at 0.96. For U9A A57U U112C the value was 0.04; for U73A U102C U112C, 1.65; for A22G U26C U47C A50U, 0.92. Take U47C U87C A124G: the self-cleavage stood at 0. For A77U U119C A121U, the self-cleavage worked out at 1.62. As for A69G A121G G139A, the self-cleavage was 0.81. As to A65G G86A U102A, the self-cleavage came out at 0.08. U52G A124U G126A A136G: the self-cleavage was 1.75. For C19U U62C U96C the value was 0.05; for U12G A77G U85A, 0.3. With A94U G126A A136G the figure was 0.38; with U13A U52C A65U U119C, 0.19. As to U46C A79G U96A, the self-cleavage was 0.1. As to G35U A64G A92G, the self-cleavage stood at 0.16. Turning to U52C G75A U96A, the self-cleavage came out at 0.09. For A43U U87A U109G A117G U134A the value was 0.07. Regarding U13C A78G C116U U132C, the self-cleavage was found to be 1.62. Regarding G41A A42G A43G U104G C110U A140G, the self-cleavage is 0.8. With U13C U46C A77U the figure was 1.02.

For the variant U20A G25A G75A, the self-cleavage is 0.72. As for A67G U73G A117G, the self-cleavage was 1.72. With A22G U26C G27A, the self-cleavage stood at 0.38.

Regarding U23C A92G U102C, the self-cleavage turned out to be 0.

With U9G U23C U39C, the self-cleavage was determined as 0.75. As for G21A U85A A124G, the self-cleavage stood at 0.1. For U39C A64G U85A C98U U102C, the self-cleavage is 0.17. As to U20G A65C U100C A138G, the self-cleavage came out at 0.48.

As to U12C G21A A22G A78G A138G, the self-cleavage was determined as 1.27. Turning to U96C C120U U132C, the self-cleavage turned out to be 0.28. Regarding G8U A31C U96C, the self-cleavage was found to be 0.11. Consider U132A U134A A141G, for which the self-cleavage amounted to 1.36. Regarding G32A A59G A77G, the self-cleavage worked out at 0.12. With U9C U39A U108C A129G the figure was 2.3; with U20A U52C A78G, 1.7. As to U9C U52C A117G, the self-cleavage turned out to be 1.53. As to U9C G27A A59G U96C, the self-cleavage was determined as 0. Regarding U29A A31G A43G U47A A50U U96C C116U, the self-cleavage is 0.09. For G4A A65G U112C, the self-cleavage came out at 0.08. For the variant A24G G32U U39A U81A, the self-cleavage was found to be 1.28.

For U119A U132C A136G U143A, the self-cleavage was found to be 1.15. As to A129G A140G A142G, the self-cleavage came out at 0.

Take U73C A117U A140G: the self-cleavage was determined as 1.46. Turning to G32U G86U U100C A124U, the self-cleavage came to 0.23.

Take U13C U46C A50G U104C: the self-cleavage was found to be 1.31. Regarding A57G U115A A124U A141G, the self-cleavage is 0.88.

As for C19U A77G A141G, the self-cleavage turned out to be 2.01.

As to U14C A22G C99G, the self-cleavage was 0.47. With U13C U15A U45C A65G G72A U100C A121G, the self-cleavage worked out at 0. On to A2U U13A G21U A64U A67G U132A, for which the self-cleavage stood at 0.19. For G21U A107G U119C A138G, the self-cleavage came to 1.36. Regarding U1A A50G A129U, the self-cleavage worked out at 0.78.

With U46C U81C A107G, the self-cleavage came out at 2.63. For the variant U46C U115A A138G C145U, the self-cleavage amounted to 1.19.

As for A6G A64G A136G, the self-cleavage amounted to 0.19.

Regarding C3U U52A G82A, the self-cleavage was determined as 1.3. Take G4A U12C U15C U85C U143C: the self-cleavage is 0.35. As to A117U A121U A138G, the self-cleavage turned out to be 1.22. Take U12C A77U A117G G127U A136G: the self-cleavage came to 1.47.

As to A65G A107G U115C U143A, the self-cleavage was found to be 0. For the variant U13C U14G U20A A65G U130C, the self-cleavage is 0.37. As to U14C U15C G74A, the self-cleavage was 1.27. With U26C U47C A57G A59U C90U U132C A140G, the self-cleavage came to 0.11.

Regarding A79C A136U A141G, the self-cleavage came out at 0. For A43G U46A U62C, the self-cleavage was found to be 0.03. In the case of A50G A78G U132C, the self-cleavage worked out at 0. In the case of A50G A67G G83A, the self-cleavage is 0. For U73A U87C A142G the value was 0.06; for A79G U87C A107G U119C U134A, 0; for A6G U23C G34A, 1.23. As to C16A A30U A59G A79G A107G A124G, the self-cleavage was 0.
